Laboratory results from patent publication US11608380B2, “Anti-EGFRvIII antibodies and uses thereof” (REGENERON PHARMACEUTICALS, INC., priority 2014, dated 2023).

How the values were obtained:
HEK293 cells = experiment: FACS cell binding selectivity; format: cell-based; conditions: secondary PE-labeled anti-Fc, 10 μg/ml
Experimental: To determine the specificity of the anti-EGFRvIII mAbs, their binding to HEK293, HEK293 cells expressing EGFRvIII (HEK293/EGFRvIII) and A431 cells, was analyzed by fluorescence activated cell sorting (FACS). HEK293/EGFRvIII cells were prepared by transfecting HEK293 cells with neomycin resistant DNA vectors constitutively expressing full-length hEGFRvIII (SEQ ID NO:147) using LIPOFECTAMINE™ 2000 transfection reagent (INVITROGEN™). At two days post-transfection, cells were placed under G418 selection for approximately two weeks. Populations positively expressing EGFRvIII were isolated via fluorescence activated cell sorting (FACS). The HEK293 cells expressing ˜3×10^6 copies of EGFRvIII per cell were used in the experiment. Briefly, the anti-EGFRvIII antibodies at 10 μg/ml were incubated with cells for 30 minutes at room temperature, washed, incubated with secondary antibody, i.e., phycoerythrin (PE)-labeled goat F(ab′)2 against human IgG (cat #109-116-170, Jackson ImmunoResearch Laboratories), followed by a final wash before FACS analysis. In another set of experiment, anti-EGFRvIII antibodies were directly conjugated via their lysine residues with the fluorescent dye, ALEXA FLUOR® 488 Dye (INVITROGEN™), thereby eliminating the step using the secondary antibody. […] Controls I, II, III, IV and V are described above. MFI: Mean Fluorescence Intensity.

EGFRvIII-mFc [1] = experiment: SPR (BIACORE) binding kinetics, mAb-capture format; design: species or system human; conditions: 37° C., NB=no binding
EGFR-mFc [2] = target: T1, EGFR-mFc (Homo sapiens, UniProt P00533); experiment: SPR (BIACORE) binding kinetics, mAb-capture format; conditions: 37° C., NB=no binding
[3] = target: junctional peptide (J-peptide) (Homo sapiens, UniProt P00533, DELINS30-297G); experiment: Antibody specificity by ELISA; conditions: ELISA binding
Experimental: (§1) To further characterize anti-hEGFRvIII mAbs, their binding specificity was examined by ELISA. […] For the junctional peptides that were linked to biotin either at C-terminal (SEQ ID NO:149) or N-terminal (SEQ ID NO:150) via a linker, plates were pre-coated with avidin. Also, coated was an irrelevant peptide (control peptide) with or without biotin at its N-terminal. Anti-EGFRvIII antibodies as well as an isotype control antibody were added to coated plates and allowed to incubate for 1 hour at 25° C. The plates were then washed and bound anti-EGFRvIII mAbs were detected with anti-human Fc antibodies conjugated with horse-radish peroxidase (HRP). […] Data analysis used a sigmoidal dose-response model within PRISM™ software.

C-term biotin J-peptide = C-term biotin J-peptide (Homo sapiens, UniProt P00533, DELINS30-297G); experiment: Antibody specificity by ELISA; conditions: ELISA binding, avidin pre-coated plates
Experimental: as §1

N-term biotin J-peptide = N-term biotin J-peptide (Homo sapiens, UniProt P00533, DELINS30-297G); experiment: Antibody specificity by ELISA; conditions: ELISA binding, avidin pre-coated plates
Experimental: as §1

Control peptide = experiment: Antibody specificity by ELISA; conditions: ELISA binding, irrelevant peptide
Experimental: (§2) To further characterize anti-hEGFRvIII mAbs, their binding specificity was examined by ELISA. […] For the junctional peptides that were linked to biotin either at C-terminal (SEQ ID NO:149) or N-terminal (SEQ ID NO:150) via a linker, plates were pre-coated with avidin. Also, coated was an irrelevant peptide (control peptide) with or without biotin at its N-terminal. Anti-EGFRvIII antibodies as well as an isotype control antibody were added to coated plates and allowed to incubate for 1 hour at 25° C. The plates were then washed and bound anti-EGFRvIII mAbs were detected with anti-human Fc antibodies conjugated with horse-radish peroxidase (HRP). Plates were developed with a tetra-methyl-benzidine (TMB) substrate solution to produce a colorimetric reaction and neutralized with sulfuric acid before reading absorbance at 450 nm on a VICTOR™ X5 plate reader. Data analysis used a sigmoidal dose-response model within PRISM™ software. […] NT: Not tested. Controls I-III: As described above.

[4] = system: N-term Biotin control peptide; experiment: Antibody specificity by ELISA; conditions: ELISA binding, irrelevant peptide with N-terminal biotin
Experimental: as §2

EGFRvIII-mFc [5] = format: binding, human; conditions: 37° C., receptor-capture, EGFRvIII-mFc captured
Experimental: (§3) Measurements were conducted on a T100 BIACORE™ instrument. […] In the receptor-capture format, either EGFRvIII-mFc or EGFR-mFc, was captured on the BIACORE™ chip and the respective antibodies flowed over. Kinetic association (ka) and dissociation (kd) rate constants were determined by processing and fitting the data to a 1:1 binding model using Scrubber 2.0 curve fitting software. Binding dissociation equilibrium constants (KD) and dissociative half-lives (t1/2) were calculated from the kinetic rate constants as: KD (M)=kd/ka; and t1/2 (min)=ln 2/(60*kd).

EGFR-mmh = EGFR-mmh (Homo sapiens, UniProt P00533); experiment: SPR (BIACORE) binding kinetics, mAb-capture format; conditions: 37° C., NB=no binding
EGFR-mFc [6] = target: T1, EGFR-mFc; experiment: SPR (BIACORE) binding kinetics, receptor-capture format; conditions: 37° C., EGFR-mFc captured, NB=no binding
Experimental: as §3

EGFRvIII-mmh = EGFRvIII-mmh (Homo sapiens, UniProt P00533, DELINS30-297G); experiment: SPR (BIACORE) binding kinetics, mAb-capture format; conditions: 37° C., NB=no binding
Experimental: as §3

B1: H1H2194P: human IgG1 Fc anti-EGFRvIII antibody; HCVR/LCVR SEQ ID NOs 2/10 (antibody, V domains shown)
VH: QVQLVQSGAEVKKPGASVKVSCKASGYTFTSYDINWVRQATGQGLEWMGWINPNSDYTGYVQKFQGRVTMTRDTSISTAYMELSSLRSEDTAVYYCATSRWSEHFHHWGQGTLVTVSS
VL: DIVMTQSPDSLAVSLGERATINCKSSQSVLYSSNNKNYLAWYQHKPGQPPNLLIYWASTRESGVPDRFSGSGSGTDFTLTISSLQAEDVAVYYCHQYYSTPFTFGPGTKVDIKR
modifications: human IgG1 Fc
Parental HEK293 MFI (HEK293 cells): 981 | ka (EGFRvIII-mFc [1]; analyte EGFRvIII-mFc (dimeric)): 95400 M⁻¹ s⁻¹ | kd (EGFRvIII-mFc [1]; analyte EGFRvIII-mFc): 0.000222 s⁻¹ | ka (EGFR-mFc [2]; analyte EGFR-mFc (dimeric)): 81000 M⁻¹ s⁻¹ | kd (EGFR-mFc [2]; analyte EGFR-mFc): 0.000199 s⁻¹ | EC50 [3]: > 10 nM | EC50 (C-term biotin J-peptide): > 10 nM | EC50 (N-term biotin J-peptide): > 10 nM | EC50 (Control peptide): > 10 nM | EC50 [4]: > 10 nM | ka (EGFRvIII-mFc [5]): 188000 M⁻¹ s⁻¹ | kd (EGFRvIII-mFc [5]): 7.38e-05 s⁻¹ | ka (EGFR-mmh; analyte EGFR-mmh (monomeric)): 76000 M⁻¹ s⁻¹ | kd (EGFR-mmh; analyte EGFR-mmh): 0.00096 s⁻¹ | ka (EGFR-mFc [6]): 187000 M⁻¹ s⁻¹ | kd (EGFR-mFc [6]): 7.07e-05 s⁻¹ | ka (EGFRvIII-mmh; analyte EGFRvIII-mmh (monomeric)): 81000 M⁻¹ s⁻¹ | kd (EGFRvIII-mmh; analyte EGFRvIII-mmh): 0.00137 s⁻¹

Where two headings read alike, the source gives them in different places.
